One experiment concerns HSkMC. Kind of experiment: cytotoxicity call (relative viability < 0.9). The note with it: 10 µM.
In another experiment the test system is HepG2. Nature of the experiment: cytotoxicity call (relative viability < 0.9). Conditions: 10 µM.
The subject of another experiment is S. aureus RN4220. Nature of the experiment: growth inhibition call (relative growth <= 0.2). Conditions: 50 µM.

Here are results for 27 compounds from the antibiotic and cytotoxicity screens of Wong et al. (2023).

The other results are listed elsewhere or left out.

In the case of `C[C@@H]1CCCCO[C@@H](CN(C)C(=O)Nc2ccc3c(c2)OCO3)[C@H](C)CN([C@@H](C)CO)C(=O)c2cc(NC(=O)NC3CCCCC3)ccc2O1`, the cytotoxicity call in the experiment with HSkMC and in the experiment with HepG2 was “inactive” in each case. Moreover, the growth inhibition call with S. aureus RN4220 is “inactive”.
On to `C[C@@H]1CCCCO[C@H](CN(C)S(=O)(=O)c2cccs2)[C@H](C)CN([C@H](C)CO)C(=O)c2cc(NC(=O)Cc3ccccc3)ccc2O1`, for which the cytotoxicity call in the experiment with HSkMC and in the experiment on HepG2 was “inactive” each time. For the same compound, in the experiment with S. aureus RN4220, the growth inhibition call was “inactive”.
As for `C[C@H](CO)N1C[C@H](C)[C@H](CN(C)C(=O)NC2CCCC2)Oc2cc(-c3cncnc3)ccc2S1(=O)=O`, the cytotoxicity call with HSkMC and in the experiment with HepG2 was “inactive” throughout. Also, in the experiment on S. aureus RN4220, the growth inhibition call is “inactive”.
On to `Nc1ccc(C(=O)N(CCO)CCO)cc1`, for which the cytotoxicity call with HSkMC and in the experiment with HepG2 was “inactive” each time. For the same compound, the growth inhibition call with S. aureus RN4220 was “inactive”.
`CN(C)C(=O)C[C@H]1CC[C@@H](NC(=O)C2CC2)[C@H](CO)O1`: the cytotoxicity call with HSkMC and in the experiment with HepG2 was “inactive” in each case. The growth inhibition call in the experiment with S. aureus RN4220 is “inactive”.
On to `C[C@H]1CN([C@@H](C)CO)S(=O)(=O)c2ccc(-c3ccc(C(=O)N(C)C)cc3)cc2O[C@H]1CN(C)C(=O)C1CC1`, for which the cytotoxicity call in the experiment with HSkMC and in the experiment on HepG2 was “inactive” each time. Besides, the growth inhibition call with S. aureus RN4220 was “inactive”.
Consider `Nc1nc(=O)c2nc(Br)n([C@@H]3O[C@@H]4COP(=O)(O)O[C@H]4[C@H]3O)c2[nH]1`, for which the cytotoxicity call with HSkMC and in the experiment with HepG2 was “inactive” throughout. In addition, the growth inhibition call in the experiment on S. aureus RN4220 is “inactive”.
Consider `O=C(O)/C=C/C(=O)NCc1ccccc1`, for which the cytotoxicity call in the experiment on HSkMC and in the experiment on HepG2 was “inactive” each time. Also, in the experiment with S. aureus RN4220, the growth inhibition call was “inactive”.
With `C[C@@H]1CN([C@@H](C)CO)C(=O)c2cc(NS(=O)(=O)c3ccc(F)cc3)ccc2O[C@@H](C)CCCCO[C@@H]1CN(C)C(=O)Nc1ccc2c(c1)OCO2`, the cytotoxicity call in the experiment with HSkMC and with HepG2 was “inactive” throughout. Further, the growth inhibition call with S. aureus RN4220 was “inactive”.
Take `CC[C@H]1COCCC(=O)N1`: the cytotoxicity call in the experiment with HSkMC and with HepG2 was “inactive” each time. In the experiment with S. aureus RN4220, the growth inhibition call was “inactive”.
For `C[C@@H]1CN([C@H](C)CO)C(=O)c2cc(NC(=O)Cn3cnnn3)ccc2O[C@H]1CN(C)Cc1ccc(C(=O)Nc2ccccc2N)cc1`, the cytotoxicity call in the experiment on HSkMC and in the experiment with HepG2 was “inactive” throughout. Moreover, in the experiment with S. aureus RN4220, the growth inhibition call is “inactive”.
For the compound `COCC#Cc1cnc2c(c1)C(=O)N([C@H](C)CO)C[C@H](C)[C@H](CN(C)S(=O)(=O)c1ccccc1)O2`, the cytotoxicity call in the experiment on HSkMC and with HepG2 was “inactive” in each case. Further, in the experiment on S. aureus RN4220, the growth inhibition call is “inactive”.
As for `C[C@H]1CN([C@@H](C)CO)C(=O)Cc2cc(NC(=O)Cn3cnnn3)ccc2O[C@H]1CN(C)Cc1ccccc1`, the cytotoxicity call in the experiment with HSkMC and in the experiment with HepG2 was “inactive” throughout. Also, in the experiment with S. aureus RN4220, the growth inhibition call was “inactive”.
`CC(C)(O)c1ccccc1CC[C@@H](SCC1(CC(=O)O)CC1)c1cccc(/C=C/c2ccc3ccc(Cl)cc3n2)c1`: the cytotoxicity call in the experiment with HSkMC is “active”. Besides, in the experiment with HepG2, the cytotoxicity call was “inactive”. Also, the growth inhibition call in the experiment with S. aureus RN4220 was “inactive”.
With `C[C@H]1[C@H]([Si](C)(C)F)[C@@H](CC(=O)N2Cc3ccccc3C[C@H]2CO)O[C@]12C(=O)N(c1ccccc1)c1ccccc12`, the cytotoxicity call in the experiment on HSkMC and with HepG2 was “inactive” in each case. Moreover, the growth inhibition call in the experiment with S. aureus RN4220 was “inactive”.
Take `C[C@H](CO)N1C[C@H](C)[C@@H](CN(C)S(=O)(=O)c2cn(C)cn2)Oc2c(NC(=O)c3ccncc3)cccc2C1=O`: the cytotoxicity call in the experiment with HSkMC and in the experiment with HepG2 was “inactive” throughout. Moreover, the growth inhibition call in the experiment with S. aureus RN4220 is “inactive”.
Regarding `C[C@@H]1CN([C@@H](C)CO)C(=O)Cc2cc(NS(C)(=O)=O)ccc2O[C@@H]1CN(C)S(=O)(=O)c1cn(C)cn1`, the cytotoxicity call in the experiment on HSkMC and in the experiment with HepG2 was “inactive” each time. The growth inhibition call in the experiment on S. aureus RN4220 is “inactive”.
As for `NCc1cccc(Cn2cccn2)c1`, the cytotoxicity call in the experiment on HSkMC and in the experiment with HepG2 was “inactive” in each case. Besides, the growth inhibition call in the experiment with S. aureus RN4220 is “inactive”.
In the case of `CC=Cc1ccc2n(c1=O)C[C@H]1[C@H](CO)[C@@H](C(=O)NCCc3cn(C)cn3)[C@@H]2N1C(=O)CC`, the cytotoxicity call with HSkMC and in the experiment with HepG2 was “inactive” in each case. In the experiment on S. aureus RN4220, the growth inhibition call was “inactive”.
`C=C1C(C2(C)C=CC(=O)C(C)(C)C2CC(=O)OC)CCC2(C)C(c3ccoc3)OC(=O)C3OC132` (stereo unspecified): the cytotoxicity call in the experiment with HSkMC and with HepG2 was “inactive” throughout. Further, in the experiment with S. aureus RN4220, the growth inhibition call was “inactive”.
Turning to `C[C@@H]1CN([C@H](C)CO)C(=O)c2c(c3ccccc3n2C)-c2ccccc2CO[C@@H]1CN(C)C(=O)Nc1ccccc1`, the cytotoxicity call in the experiment on HSkMC and in the experiment on HepG2 was “inactive” throughout. The growth inhibition call in the experiment with S. aureus RN4220 was “inactive”.
Take `O=C(NCCO)c1nc(NCCO)c2ccccc2n1`: the cytotoxicity call with HSkMC and in the experiment with HepG2 was “inactive” throughout. Also, the growth inhibition call in the experiment on S. aureus RN4220 was “inactive”.
On to `CC(=O)NCC1CN(c2ccc(N3CCOCC3)c(F)c2)C(=O)O1` (stereo unspecified), for which the cytotoxicity call with HSkMC and with HepG2 was “inactive” each time. Further, the growth inhibition call in the experiment on S. aureus RN4220 was “active”.
For the compound `CN1C(=O)c2cc(NC(=O)c3cnccn3)ccc2OC[C@H]2O[C@@H](CC(=O)Nc3cc(F)ccc3F)CC[C@@H]21`, the cytotoxicity call in the experiment on HSkMC and in the experiment on HepG2 was “inactive” throughout. Besides, the growth inhibition call in the experiment with S. aureus RN4220 is “inactive”.
As for `C[C@H]1CN([C@@H](C)CO)C(=O)Cc2cc(NC(=O)CCC(F)(F)F)ccc2O[C@H]1CN(C)S(=O)(=O)c1cn(C)cn1`, the cytotoxicity call with HSkMC and in the experiment on HepG2 was “inactive” each time. The growth inhibition call in the experiment on S. aureus RN4220 was “inactive”.
Regarding `C[C@@H]1CN([C@@H](C)CO)C(=O)c2cc(NS(=O)(=O)c3ccccc3)ccc2O[C@H]1CN(C)Cc1ccc(Cl)c(Cl)c1`, the cytotoxicity call in the experiment on HSkMC (human skeletal muscle cells) and in the experiment with HepG2 was “inactive” each time. In the experiment on S. aureus RN4220, the growth inhibition call is “inactive”.
`C[C@H]1CCCCO[C@@H](CN(C)C(=O)c2ccncc2)[C@@H](C)CN([C@@H](C)CO)C(=O)c2cc(NC(=O)NC3CCCCC3)ccc2O1`: the cytotoxicity call with HSkMC and in the experiment on HepG2 was “inactive” in each case. Also, the growth inhibition call in the experiment on S. aureus RN4220 was “inactive”.
